# According to PubChem BioAssay AID1452 (National Center for Advancing Translational Sciences (NCATS), 2008):
# The campaign covered roughly 150,000 compounds. About 190 (0.13%) were called active. This list was built around the results that the source calls inconclusive (neither active nor inactive); the mix of calls is not that of the screen. Calls come from the whole dose curve; as a rule, active = well fitted inhibition curve with a large enough effect; inconclusive = small, poorly fitted or top-dose-only effect; inactive = flat fitted curve, though single readings scatter. Where the call is inconclusive, the potency comes from a doubtful curve fit.
# Molecular target: Polyunsaturated fatty acid lipoxygenase ALOX12 (Homo sapiens) (UniProt P18054)
# Sequence of UniProt P18054 (P18054 whole entry, looked up): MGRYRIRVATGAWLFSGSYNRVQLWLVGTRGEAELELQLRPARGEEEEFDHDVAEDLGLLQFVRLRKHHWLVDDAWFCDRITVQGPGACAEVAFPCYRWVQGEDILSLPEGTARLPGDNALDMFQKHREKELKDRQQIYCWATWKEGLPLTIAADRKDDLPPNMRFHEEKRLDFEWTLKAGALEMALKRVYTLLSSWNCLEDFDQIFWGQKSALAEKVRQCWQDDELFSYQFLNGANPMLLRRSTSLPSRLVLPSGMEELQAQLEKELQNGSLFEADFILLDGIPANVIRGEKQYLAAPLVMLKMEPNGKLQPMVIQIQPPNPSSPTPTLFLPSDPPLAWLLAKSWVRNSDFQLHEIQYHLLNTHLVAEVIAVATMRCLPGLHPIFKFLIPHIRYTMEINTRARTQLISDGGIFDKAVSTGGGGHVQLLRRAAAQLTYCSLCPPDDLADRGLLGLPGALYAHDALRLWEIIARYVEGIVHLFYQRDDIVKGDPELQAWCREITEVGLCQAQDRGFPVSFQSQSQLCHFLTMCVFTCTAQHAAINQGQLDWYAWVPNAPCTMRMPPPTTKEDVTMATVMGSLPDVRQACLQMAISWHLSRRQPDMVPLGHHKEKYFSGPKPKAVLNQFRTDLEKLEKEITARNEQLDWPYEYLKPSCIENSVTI
# Test: qHTS Assay for Inhibitors of 12-hLO (12-human lipoxygenase); note: nearly all actives have a fitted effect of over 55% in size
# Details: purified 12-hLO, xylenol orange hydroperoxide absorbance; series mostly up to 57.1 µM; activity change, negative = inhibition: at the top concentration
# From the text: Assay Provider: Holman, T.R., University of California, Santa Cruz Screening Center PI: Austin, C.P. Screening Center: NIH Chemical Genomics Center [NCGC] Human lipoxygenase 12hLO is a member of the closely related lipoxygenase family of enzymes which catalyze the site-specific oxidation of arachidonic acid to various hormone precursor molecules and as such is a candidate for drug development in a variety of disease areas, such as cancer and inflammation. Inhibition of 12hLO activity was screened by utilizing arachidonic acid as a substrate. The extent of hydroperoxide product formation was measured by a secondary chromogenic reaction in which xylenol orange (XO, Sigma-Aldrich, cat. number 39,818-7) reacts with the ferric ions produced from the reaction between the hydroperoxide and ferrous ions. The Fe(III)-XO complex is characterized with red-shifted absorbance at 560 nm. A purified preparation of human 12hLO was supplied by Professor Ted Holman, University of California, Santa Cruz.
# Assay Protocol: Buffer: 25 mM Hepes pH 7.0, 0.01% Triton X-100. Reagents/Controls: Buffer in columns 3 and 4 as negative control (no enzyme). Substrate solution: 40 uM arachidonic acid (Sigma-Aldrich, St. Louis, MO) final concentration dispensed throughout the plate. Enzyme: 150 nM 12hLO final concentration in columns 1, 2, 5-48. Column 1 is neutral (100% activity). Column 2 contained pin-transferred titration of NDGA (nordihidroguaiaretic acid, Sigma-Aldrich, N 5023, top concentration 20 mM in DMSO, then 1:3 dilution in duplicate). (Dilution factor: 23 nL into 4 uL.) Chromogenic detection reagent (divalent iron/xylenol orange, Fe-XO): 200 uM xylenol orange plus 300 uM ferrous ammonium sulfate prepared freshly in 50 mM sulfuric acid. Assay Steps: Three uL of enzyme were dispensed to 1536-well Greiner black clear bottom plates. Compounds and controls (23 nL) were transferred via Kalypsys PinTool. The plates were incubated for 15 min at room temperature, and then 1 uL of substrate solution was added to start the reaction. After room temperature incubation for 30 minutes, 4 uL of Fe-XO solution was added to each well and the plates were incubated for 30 min. The absorbance at 405 and 573 nm were measured using ViewLux (Perkin-Elmer) High-throughput CCD imager and absorbance protocol settings. The 573-to-405 absorbance ratio was used to compute reaction progress.
# % is set by controls: 0 for no effect and ±100 for the full control effect; potency is the fitted concentration of half-maximal effect; tags give direction and shape of the fitted curve.
Compound,Potency,"activity change, negative = inhibition"
COC(=O)N[C@H](c1ccccc1)[C@@]1(C)C[C@@H]1[C@@H](C)C(=O)Nc1ccc2ccccc2c1,"inconclusive: 25.1 µM [inhibitor, partial curve]",
S=C(Nc1cccc(Br)c1)c1ccccc1,"inconclusive: 14.1 µM [inhibitor, partial curve]",
CN(C)CCNC(=O)c1cc2cc(Br)ccc2oc1=O,"inconclusive: 20 µM [inhibitor, partial curve]",
Cc1cc(N2CCCCCC2)nc2ccccc12,"inconclusive: 31.6 µM [inhibitor, single point]",
Cc1ccccc1N/C(SCc1ccc(Cl)cc1)=C(/C#N)C(N)=O,"inconclusive: 3.55 µM [inhibitor, full curve]",
CN(C)C(=O)c1ccc2c(c1)n(C)c(=O)n2C,,inactive: 2.03%
CCC1CCCCN1C(=O)CSc1nc2ccsc2c(=O)n1Cc1ccccc1 (stereo unspecified),,inactive: 2.89%
C=CCSC1=N/C(=C\C=C\c2ccco2)C(=O)S1,"inconclusive: 15.8 µM [inhibitor, partial curve]",
Cc1nn(-c2ccc(S(=O)(=O)O)cc2)c(O)c1N=Nc1ccc(-c2ccc(N=Nc3ccc4c(S(=O)(=O)O)cc(S(=O)(=O)O)c(N)c4c3O)c(O)c2)cc1O.[Cu].[Cu],,inactive: -20.9% [at 11.4 µM]
CCOc1ccc(N(C)S(=O)(=O)c2ccc3[nH]cc(C(=O)NCC4CCCO4)c(=O)c3c2)cc1 (stereo unspecified),,inactive: -12.3%
CCOC(=O)c1nn(-c2ccc(C)cc2)c(=O)c2c(N)scc12,"inconclusive: 39.8 µM [inhibitor, single point]",
CCCOc1ccc(CSCCNC(=S)Nc2ccccc2)cc1,"inconclusive: 10 µM [inhibitor, partial curve]",
CN(C)c1ccc(C(=C2C=CC(=[N+](C)C)C=C2)c2c(O)c(S(=O)(=O)O)cc3cc(S(=O)(=O)O)ccc23)cc1,,inactive: 2.63% [at 11.4 µM]
O=C(NO)c1ccc(C(=O)N(C2CCCCC2)C2CCCCC2)cc1,"inconclusive: 2.51 µM [inhibitor, full curve, poor fit]",
CCOC(=O)C1CCN(c2nc3ccccc3nc2C(C#N)C(=O)NCCc2ccccc2)CC1 (stereo unspecified),"inconclusive: 31.6 µM [inhibitor, single point]",
COc1ccc(C2/C=C\CN(S(=O)(=O)c3ccc(C)cc3)CC(=O)N2Cc2cccc(F)c2)cc1 (stereo unspecified),,inactive: -2.46% [at 0.00818 µM]
O=[N+]([O-])c1ccc(-c2ccc(/C=N/c3c(-c4ccco4)nc4ccccn34)o2)cc1,"inconclusive: 31.6 µM [inhibitor, single point]",
CCOc1cc(OCC)cc(C(=O)NC(=S)Nc2cccc(C(F)(F)F)c2)c1,"inconclusive: 20 µM [inhibitor, partial curve]",
COc1cc(-c2cccs2)cc(=O)c2c(C)oc(C)c12,"inconclusive: 15.8 µM [inhibitor, partial curve]",
Cc1ccc(NC(=S)NC(=O)c2c(-c3ccccc3Cl)noc2C)cc1,"inconclusive: 7.08 µM [inhibitor, partial curve]",
CC(C)NCC(O)COc1ccc(COCCOC(C)C)cc1 (stereo unspecified),"inconclusive: 6.31 µM [inhibitor, single point]",

Compound,Potency,"activity change, negative = inhibition"
O=C(c1ccc(Cl)cc1)C1C2C(=O)N(c3ccccc3)C(=O)C2C2CCCN21 (stereo unspecified),"inconclusive: 14.1 µM [inhibitor, partial curve]",
O=C(c1nn2c(C(F)(F)F)cc(-c3ccco3)nc2c1Br)N1CCCc2ccccc21,"inconclusive: 28.2 µM [inhibitor, single point]",
O=c1cc(-c2cccc(O)c2O)oc2ccccc12,"inconclusive: 35.5 µM [inhibitor, partial curve, poor fit]",
CC(C)c1ccc(O)c(N)c1,"inconclusive: 20 µM [inhibitor, single point]",
C=CCNc1ncnc2c1cnn2-c1ccc(OC)cc1,"inconclusive: 12.6 µM [inhibitor, partial curve]",
CC(Oc1ccc(Cl)cc1Cl)C(=O)Nc1ccc2oc(-c3ccncc3)nc2c1 (stereo unspecified),,inactive: 0.168%
Oc1ccc(-c2nc3cnccn3c2Nc2ccc3c(c2)OCCO3)cc1,"inconclusive: 20 µM [inhibitor, partial curve]",
CC(=O)c1c(N2CCC(C(N)=O)CC2)nc(=S)n(-c2ccccc2)c1C,"inconclusive: 0.0032 µM [inhibitor, full curve, poor fit]",
O=C1CCNc2cc3ccccc3cc21,"inconclusive: 7.08 µM [inhibitor, partial curve, poor fit]",
CC(N=Cc1cccc(O)c1O)c1ccccc1 (stereo unspecified),"inconclusive: 3.16 µM [inhibitor, partial curve, poor fit]",
O=C(Nc1nnc(C2=COCCO2)o1)c1ccc(Cl)cc1,"inconclusive: 1.78 µM [inhibitor, full curve]",
Cc1ccc(C(=O)NC(=S)Nc2ccccc2N2CCCC2)cc1[N+](=O)[O-],"inconclusive: 20 µM [inhibitor, single point]",
CCCCN(CC)CCNC(=O)CN(C)S(=O)(=O)c1ccc2c(c1)c(=O)n(C)c(=O)n2C,,inactive: 8.4%
CC(C)(CO)[C@@H](O)C(=O)NCCCO,inactive,
COC(=O)C(NNc1ccccc1)(NC(=O)c1ccccc1F)C(F)(F)F (stereo unspecified),"inconclusive: 12.6 µM [inhibitor, partial curve]",
COCCNC(=O)CS(=O)(=O)Cc1nc(-c2ccc(C)cc2)oc1C,,inactive: 5.79%
CCOc1ccccc1NC(=S)NC1CCCCC1,"inconclusive: 14.1 µM [inhibitor, partial curve]",
COc1ccc(/C=N/NC(N)=S)cc1OC(=O)c1ccccc1,,inactive: -23.9%
Cc1cc(=O)c2c(O)c3c(O)cc(O)c4c5c(O)cc(O)c6c(O)c7c(=O)cc(C)c8c1c2c(c34)c(c65)c78,"inconclusive: 14.1 µM [inhibitor, partial curve]",
C=CCN(CC=C)S(=O)(=O)c1ccc(NC(=S)NC(=O)c2ccc(-c3ccccc3)cc2)cc1,"inconclusive: 8.91 µM [inhibitor, partial curve]",
